Consider 22 molecules from publication PMC12136788.

The other results are listed elsewhere or left out.

The chains are these.
B1: 131122594_131122714_1111_CDS_ENSG00000128585_ENST00000352689|human|control|control (ssRNA)
RNA: GGGAGUUCUACAGUCCGACGAUCAUCCUCACUUAGUAACAUCCAUGUGUUUGUAUCAAUGUCAUAACGAUAGAAGUCACUUUUCAGAGAUUUGCUGUUCCUCACAGAGGAAUCCAAGUAACGCCCCAAUGUGUAGAUUUGCCUCAACAGAGGAUUGAGCAUCA
B2: chr9:21819513:21819514:-_ENSMUSG00000003410_ENSMUST00000003501|mus_hu|FALSE|FALSE (ssRNA)
RNA: GGGAGUUCUACAGUCCGACGAUCCUGAACUUUUAUUUUCUGGCAUGAAAAGUACAAAUAAUUAAACAAUUCCAUGUAAAAGUCUGUUACCGCGGCCAGGCCUGUGAUCCCGGUAAUAAAUAGUCUAAACGCAACGCGAAGUGUCAACAGAGGAUUGAGCAUCA
B3: chr1:235506033:235506034:+_ENSG00000152904_ENST00000391855|hu_mus|motif|central (ssRNA)
RNA: GGGAGUUCUACAGUCCGACGAUCAUAGUAUUAUUUAUUUUCUUCUGUGAACAUCUUACUUAAGUGCUUGACUAAAGCCACGGGUGAAGGGUUCCCACCACAGGCCUCAAUUUGUUUGUAGGCUUUAGCUUCAAGCUCUCUAAGCAACAGAGGAUUGAGCAUCA
B4: chr12:70905630:70905631:-_ENSMUSG00000034761_ENSMUST00000110570|mus_hu|FALSE|FALSE (ssRNA)
RNA: GGGAGUUCUACAGUCCGACGAUCAUUCUGUAUGAAACUGUAUUAUAAAAUACUUUUGUUAAGCAAAAUUGCAUGUGUGUGUUGAACCCCCAAACACUCAAAGUACUUUACUACUCUUAAAAGAUAAACAAAAUUCUUAUACAUCAACAGAGGAUUGAGCAUCA
B5: chrX:20248510:20248511:+_ENSMUSG00000001924_ENSMUST00000001989|perfect_dup|FALSE|FALSE (ssRNA)
RNA: GGGAGUUCUACAGUCCGACGAUCGACCUGACUGACGAUGCCUCCACGGAUGUAGUCAGAGAAGUUGGAAGUGUCACAGAUACUAAAGGUAUAAGGACCCAGCACUUUGAUCUCCAUGGGCUGACAUCCAUUGAGUUGGAUCAUCAACAGAGGAUUGAGCAUCA
B6: chr1:88248876:88248877:-_ENSMUSG00000026234_ENSMUST00000027438|perfect_dup|FALSE|FALSE (ssRNA)
RNA: GGGAGUUCUACAGUCCGACGAUCUUCCAUUUUAUUACAGGAAUUUAAAGCUUCUUUAGCAUCUUCAAAUGAAGCAAAUUCUAUAAAUGCAUACCCUUUAGGUUUGCCAUGUGGGUUCUGGGGCACUUUGAUAAAAGUUGCUUUCAACAGAGGAUUGAGCAUCA
B7: chrX:20248820:20248821:+_ENSMUSG00000001924_ENSMUST00000001989|mus_mus|mus_mus_mus_hu_True|48_78 (ssRNA)
RNA: GGGAGUUCUACAGUCCGACGAUCGGCGAAGUCCGUCACCACAAAGUCAGGUUCUGCCAGUGAUGCUACCAAGGAUUUAAAGCUAAUCUUUUUCGGUACUUUGACCUGACUGACGAUGCCUCCACGGAUGUAGUCGGAGAAGUUCAACAGAGGAUUGAGCAUCA
B8: chr1:66486420:66486421:+_ENSMUSG00000015222_ENSMUST00000077355|mus_mus|FALSE|FALSE (ssRNA)
RNA: GGGAGUUCUACAGUCCGACGAUCUUAAAAUUUAUUUUUAAAUAGGGAGAGAACCCUGCUAACAUCUACUUUCACAUACCUAAAAUUGCAACACCAAAGGGUGCAGGAGACACAGAUACUGUGAAUAAAGAAGUAUCAUAUUCACAACAGAGGAUUGAGCAUCA
B9: chr3:110853029:110853030:+_ENSG00000177707_ENST00000485303|hu_mus|FALSE|FALSE (ssRNA)
RNA: GGGAGUUCUACAGUCCGACGAUCUGGCUGUUAGACAUACCACUCCCUCCUGGAAAUUACGGAGCCAUCUACAUGAGAAACCAAACCAUCUUCACUUUCAUUGUAGCGUUCAUCACUGACAAACUUCAUUCCCAUUUUUAGAUCCAACAGAGGAUUGAGCAUCA
B10: 135224773_135229106_165_5pUTR_ENSG00000107290_ENST00000224140|human|control|control (ssRNA)
RNA: GGGAGUUCUACAGUCCGACGAUCGGUGGAAGCACCACCUGGCGUACACCAACAACAUGUGCUCAUUCUGUACCUGGACAAAUGGCCUACAGAAAAGUGAUCGUCUCAGCUGGGCUUAGUUGUGAACAAACACGGAUUUGCAUUCAACAGAGGAUUGAGCAUCA
B11: chr3:88516089:88516090:+_ENSMUSG00000028060_ENSMUST00000029696|mus_hu|motif|central (ssRNA)
RNA: GGGAGUUCUACAGUCCGACGAUCAUUGACCAAACAGUAGUAAAAUACAAAUAAAACUUUCUUUAUGUCAGAACUGGGGCGGUUCACCUGGAAAAGGCUGACCAGGUCAAAUGUGUAUGGGAACGACCCUGUUAGGAUGCUUUGCAACAGAGGAUUGAGCAUCA
B12: chr3:100103413:100103414:-_ENSG00000154174_ENST00000284320|hu_mus|motif|central (ssRNA)
RNA: GGGAGUUCUACAGUCCGACGAUCAAGAAGUUUAAGAACUUUAUCAGCUAACAGCAUGCUCUGCUCAUUUUGAAACCCUUCGGAUAUACACACAGCAGUGACGUCUUCUAAACACUCCUUCUUAUUGUCUAGCUUCUCAUGGGCCAACAGAGGAUUGAGCAUCA
B13: chr3:139078181:139078182:-_ENSG00000184432_ENST00000507777|hu_hu|motif|central (ssRNA)
RNA: GGGAGUUCUACAGUCCGACGAUCCUGACUGGGUAAGUAAGUUCGGGCCAAGAAGGCAGCUUCUGGCAGCCGUCCAGUUCGGAUUAAGAGCUCUAGGCAGGCAUCAACCUUGCCCUGUAAAAAGUAGCUCAUGAAUGCCACAUUCAACAGAGGAUUGAGCAUCA
B14: chr17:66333223:66333224:-_ENSMUSG00000034647_ENSMUST00000038116|mus_hu|motif|central (ssRNA)
RNA: GGGAGUUCUACAGUCCGACGAUCAACAUCUCCUAGGACAAAAGUAUUUUCUGUAUCUUUUGUAGAUUCAUUAUCAGUAUCGGAAGCAGAACUAAUAAUCUGAACUGCAUUUUUUUGUUGUAAAAUACCUGGCUCUUGAUUAGCCAACAGAGGAUUGAGCAUCA
B15: chr19:58207738:58207739:+_ENSMUSG00000054843_ENSMUST00000077282|mus_hu|FALSE|FALSE (ssRNA)
RNA: GGGAGUUCUACAGUCCGACGAUCCCCAGAAAGGUAUAGCAUGACUUUAACUAAACAUCACAUUGUGUCUCAUAAUUCUCUACAAUUUGAAUUUUCAAGUUUUAAGAACCCAGUGGGAUUUGAGGUGAAUAAAACUUGAUAAUUCAACAGAGGAUUGAGCAUCA
B16: 49442959_49443542_3888_CDS_ENSG00000167548_ENST00000301067|human|control|control (ssRNA)
RNA: GGGAGUUCUACAGUCCGACGAUCUCCACGAGGCCGGCGUCUUCCUGGGAAACUGCUGCUGCGACCCUGUUUGAUGCGGGAACGGGCUGGGGAGCUGCGCCGCCGCCCCUUCUCCCCCUCAGCUUUGCCUCCGCUGAUAGCUGUCAACAGAGGAUUGAGCAUCA
B17: 71360568_71360688_1042_CDS_ENSG00000124383_ENST00000244230|human|control|control (ssRNA)
RNA: GGGAGUUCUACAGUCCGACGAUCAAACAGUCCCCCUUCAUCUUCAUCAGAAUCAAUAUCUUCAAAAAAAUCAAUAUCUUCCUCCUCCUCAUCAUUAUCAUCUUUUCGUUCCUCUUCUUUUUCUAUGUUUUCUAAAUAGGCCUCCAACAGAGGAUUGAGCAUCA
B18: chr18:42401725:42401726:-_ENSMUSG00000024493_ENSMUST00000097590|mus_mus|FALSE|FALSE (ssRNA)
RNA: GGGAGUUCUACAGUCCGACGAUCAGGCCGAACCCAACAAUUUGUCUGCCCAAACAUAGUCUCAGGUCUGAGUGUAGCAGCUACUAGGAAGAUAUUUUUCCCUUUCAGGCCGCUUAAUUUUGAUGGAUAUGGUUCAAGCACCUUCAACAGAGGAUUGAGCAUCA
B19: chr11:50196439:50196440:+_ENSMUSG00000007850_ENSMUST00000069304|mus_mus|motif|central (ssRNA)
RNA: GGGAGUUCUACAGUCCGACGAUCCCCAUAUCUGUGGUCAGACAUUCCUGAAAAACAAUAAUUGAGGUCUCUUCCAAAUCGGUCUGAACCAAAUCCAUAGCCAUCAUUAUAGCCAUUAUAAUCAUCAUAGCCUCCAUAGCCUCCCAACAGAGGAUUGAGCAUCA
B20: chr1:244855233:244855234:+_ENSG00000121644_ENST00000302550|hu_hu|motif|central (ssRNA)
RNA: GGGAGUUCUACAGUCCGACGAUCCAUUAAAUGAUAAGCAUUGCCUUUGUAUUCUUUUCCCAGUUCUUCUACAAUUUUUUCGGUAUCAUCUUCUAGGAAGUCCGUGCUCCCUAAAACAACAGCUUCUUUAAAUUUAAAUGUUUCCAACAGAGGAUUGAGCAUCA
B21: 156572074_156572194_565_ncRNA_ENSMUSG00000061689_ENSMUST00000127944|mouse|control|control (ssRNA)
RNA: GGGAGUUCUACAGUCCGACGAUCUGUACAGGAGCUUGCUGGCUGAGUGUAACUACAUUCACUGGGACAACCCACUGGAGGAUGUCCAGCUAUGGACCUGCAGCAUGGGUGCUGGACACACGAGUGUGGCUGCAGGAGAAUUUGCAACAGAGGAUUGAGCAUCA
B22: chr8:35203877:35203878:-_ENSMUSG00000031513_ENSMUST00000033910|mus_hu|FALSE|FALSE (ssRNA)
RNA: GGGAGUUCUACAGUCCGACGAUCGGAAGGGCACAUCCAAGCAUCAAAAACAUCAGUCCGAUUGCUCCUCCAAAGGACAAACUAAUCAAAGCUUUGAUGCCUGCCAUGGCGGUGACGUCGCUCCUGGCUCCACGACCCGAGGCGCAACAGAGGAUUGAGCAUCA

In the test the target is T1, UNK ZnF1-3 (human, UniProt Q9C0B0 31-174).
T1 sequence: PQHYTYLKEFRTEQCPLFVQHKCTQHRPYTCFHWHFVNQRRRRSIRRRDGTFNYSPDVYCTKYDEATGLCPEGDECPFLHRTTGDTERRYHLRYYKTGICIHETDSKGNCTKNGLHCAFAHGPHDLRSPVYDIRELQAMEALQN
Description: nsRBNS (natural sequence RNA bind-n-seq); RBNS binding buffer (assumed for nsRBNS): 25 mM Tris pH 7.5, 150 mM KCl, 3 mM MgCl2, 0.01% Triton X-100, 500 ug/ml BSA, 20 U/ml SUPERase-In, 4 C; UNK is unkempt and MSI1 is Musashi-1; names of the RNAs are library labels; protein concentration not given here; high values mean tight binding.
In the case of B1, the binding signal is 0.873 enrichment R.

Turning to B2, the binding signal was 0.856 enrichment R.

In turn, B3 gave a binding signal of 0.959 enrichment R. The molecule B4 registered a binding signal of 0.696 enrichment R. The figure for B5 is 0.463 enrichment R.

B6 registered a binding signal of 0.792 enrichment R. Regarding B7, the binding signal was determined as 0.818 enrichment R. As for B8, the binding signal worked out at 1.77 enrichment R. The figure for B9 is 0.852 enrichment R.

With B10, the binding signal amounted to 1.17 enrichment R. As for B11, the binding signal amounted to 1.29 enrichment R. Turning to B12, the binding signal turned out to be 0.877 enrichment R. B13 registered a binding signal of 1.11 enrichment R. The figure for B14 is 1.14 enrichment R. Under B15 stands 0.945 enrichment R; under B16, 0.882 enrichment R; under B17, 1.8 enrichment R. Under B18 stands 0.93 enrichment R; under B19, 1.31 enrichment R. B20 showed a binding signal of 0.665 enrichment R. The molecule B21 had a binding signal of 0.449 enrichment R. On to B22, for which the binding signal stood at 2.82 enrichment R.
